Reference: US20260124226A1 (priority 2023, published 2026)

Key:
[1] = human (A549, HepG2); African green monkey (Vero)
[2] = mouse, in vivo
Coxsackie virus B3 = test: microbe, parasite or virus in culture
Vero cells = details: African green monkey
[3] = Liver microsome stability; details: human liver microsomes, drug 1.00 μM
[4] = Liver microsome stability; details: rat liver microsomes, drug 1.00 μM
[5] = Liver microsome stability; details: mouse liver microsomes, drug 1.00 μM
[6] = C57/BL6 mice, tissues, oral 25 mg/kg vs EIDD-2749 15 mg/kg

Compound: CC(C)OC(=O)[C@H](C)N[P@](=O)(OC[C@@]1(F)O[C@@H](n2ccc(=O)[nH]c2=O)[C@H](O)[C@@H]1O)Oc1ccccc1 [EIDD-3232, isopropyl ((S)-(((2S,3S,4R,5R)-5-(2,4-dioxo-3,4-dihydropyrimidin-1(2H)-yl)-2-fluoro-3,4-dihydroxytetrahydrofuran-2-yl)methoxy)(phenoxy)phosphoryl)-L-alaninate]
- intracellular concentration of EIDD-3232 [1]: 3 to 20 µM
- Tmax, EIDD-2991 in brain ([2]; female, ICR (CD-1), po): 4 h
- Tmax, EIDD-2991 in heart ([2]; female, ICR (CD-1), po): 2 h
- Tmax, EIDD-2991 in kidney ([2]; female, ICR (CD-1), po): 1 h
- Tmax, EIDD-2991 in liver ([2]; female, ICR (CD-1), po): 2 h
- Tmax, EIDD-2991 in lung ([2]; female, ICR (CD-1), po): 1 h
- Tmax, EIDD-2991 in spleen ([2]; female, ICR (CD-1), po): 4 h
- t1/2, EIDD-2991 in brain ([2]; female, ICR (CD-1), po): 9.81 h
- t1/2, EIDD-2991 in heart ([2]; female, ICR (CD-1), po): 22.4 h
- t1/2, EIDD-2991 in kidney ([2]; female, ICR (CD-1), po): 133 h
- t1/2, EIDD-2991 in liver ([2]; female, ICR (CD-1), po): 29.0 h
- t1/2, EIDD-2991 in lung ([2]; female, ICR (CD-1), po): 286 h
- t1/2, EIDD-2991 in spleen ([2]; female, ICR (CD-1), po): 46.7 h
- EIDD-3321 in kidney ([2]; female, ICR (CD-1), po, 10 mg/kg): ~0.02 nmol/g
- 5′-triphosphate in lung, kidney, liver, and spleen [2]: high concentrations
- AUC24, EIDD-2991 in brain ([2]; po): 7.06 nmol·h/g
- AUC24, EIDD-2991 in heart ([2]; po): 75.6 nmol·h/g
- AUC24, EIDD-2991 in kidney ([2]; po): 86.1 nmol·h/g
- AUC24, EIDD-2991 in liver ([2]; po): 202 nmol·h/g
- AUC24, EIDD-2991 in lung ([2]; po): 128 nmol·h/g
- AUC24, EIDD-2991 in spleen ([2]; po): 190 nmol·h/g
- AUCinf, EIDD-2991 in brain ([2]; po): 12.0 nmol·h/g
- AUCinf, EIDD-2991 in heart ([2]; po): 137 nmol·h/g
- AUCinf, EIDD-2991 in kidney ([2]; po): 611 nmol·h/g
- AUCinf, EIDD-2991 in liver ([2]; po): 457 nmol·h/g
- AUCinf, EIDD-2991 in lung ([2]; po): 2400 nmol·h/g
- AUCinf, EIDD-2991 in spleen ([2]; po): 593 nmol·h/g
- Cmax, EIDD-2991 in brain ([2]; po): 0.356 nmol/g
- Cmax, EIDD-2991 in heart ([2]; po): 6.22 nmol/g
- Cmax, EIDD-2991 in kidney ([2]; po): 6.67 nmol/g
- Cmax, EIDD-2991 in liver ([2]; po): 16.3 nmol/g
- Cmax, EIDD-2991 in lung ([2]; po): 6.37 nmol/g
- Cmax, EIDD-2991 in spleen ([2]; po): 13.0 nmol/g
- EIDD-3232 in tissues ([2]; po, 10 mg/kg): not detected
- EIDD-3321 in all other tissues ([2]; po, 10 mg/kg): BQL
- EC50 (Coxsackie virus B3; Enterovirus B, B3, Huh-7): 18 µM
- intracellular EIDD-2991 (highest level) (Vero cells): 70 µM
- intracellular EIDD-3232 level reached (Vero cells): ~60 µM

Compound: O=c1ccn([C@@H]2O[C@](F)(CO)[C@@H](O)[C@H]2O)c(=O)[nH]1 [EIDD-2749, 4′-fluorouridine]
- half-life [3]: 0.367 h
- t1/2, EIDD-2991 in brain ([2]; female, ICR (CD-1), po): 10.7 h
- t1/2, EIDD-2991 in heart ([2]; female, ICR (CD-1), po): 18.0 h
- t1/2, EIDD-2991 in kidney ([2]; female, ICR (CD-1), po): 17.4 h
- t1/2, EIDD-2991 in liver ([2]; female, ICR (CD-1), po): 17.2 h
- t1/2, EIDD-2991 in lung ([2]; female, ICR (CD-1), po): 30.1 h
- t1/2, EIDD-2991 in spleen ([2]; female, ICR (CD-1), po): 26.9 h
- EC90 (Coxsackie virus B3; Enterovirus B, B3, Vero 76): > 380 µM

Compound: CC(C)C(=O)OC[C@@]1(F)O[C@@H](n2ccc(=O)[nH]c2=O)[C@H](OC(=O)C(C)C)[C@@H]1OC(=O)C(C)C [EIDD-2954, [(2S,3S,4R,5R)-5-(2,4-dioxopyrimidin-1-yl)-2-fluoro-3,4-bis(2-methylpropanoyloxy)tetrahydrofuran-2-yl]methyl 2-methylpropanoate]
- half-life [4]: <1 min
- half-life [3]: <0.017 h
- half-life [5]: <1 min

Compound: O=c1ccn([C@@H]2O[C@](F)(COP3(=O)OCc4ccccc4O3)[C@@H](O)[C@H]2O)c(=O)[nH]1 (stereo partly shown) [EIDD-2838]
- EC50 (Coxsackie virus B3; Coxsackie virus B3, Vero 76 cells): 2.76 µM
- EC50 (Coxsackie virus B3; Enterovirus B, B3, Vero 76, Coxsackie virus B3, Vero 76 cells): 4.83 µM
- exposure to EIDD-2749 and EIDD-2991 compared to EIDD-2749-dosed mice [6]: decrease the exposure
